Measured values: paper PMC9817974, “Pharmacokinetic Basis for Using Saliva Matrine Concentrations as a Clinical Compliance Monitoring in Antitumor B Chemoprevention Trials in Humans” (Cancers, 2022)

Columns and labels:
[1] = Population compartmental PK co-model of plasma and saliva matrine (Model C); type: in vivo, human; settings: Model C estimate
Protocol: The population PK model was developed using plasma and saliva concentrations of 8 healthy participants in the study. No input was made for the missing data points. Initial estimates of individual compartmental PK parameters were derived from non-compartmental analysis. Different compartmental PK models were tested to describe the plasma and saliva PK profiles of Matr. The population pharmacokinetic compartmental models using actual dosing and sampling times were built using Phoenix NLME 8.2. and goodness-of-fit was determined. More details of PK modeling are described in Supplementary Material S3 Section S3.
Model A has two compartments plasma and saliva, while a tissue compartment was added to Model B and Model C. A direct absorption to the saliva compartment was added in Model C (Figure 4) to account for the reabsorption of drug excreted in the saliva from the oral cavity and the intestine, thereby entering the recycling process (Figure 5).
S3. Compartmental Pharmacokinetic Co-modeling
The population PK model was developed using plasma and saliva concentrations of 8 healthy
participants in the study.
in blood sampling, no input was made for the missing data points. Initial estimates of individual
compartmental PK parameters were derived using WinNonlin® version 8.2. The concentration of
matrine in plasma and saliva were fitted simultaneously. Actual dosing and sampling times were
used for the compartmental modeling. Different compartmental PK models were tested to describe
the concentration of matrine in plasma and saliva compartments (Fig 7 in the main manuscript).
A1 = - (Cl_p * C) + (Aa * Ka)- (Vmax * C / (C + Km))- (A1 * K13) + (A2 * Ksp)
Aa = - (Aa * Ka)- (Aa * K_a2)
A2 = (Vmax * C / (C + Km))- (CL_s * Cs) + (A3 * Kts)- (A2 * Ksp) + (Aa * K_a2)
A3 = (A1 * Kpt)- (A3 * Kts)
The population pharmacokinetic compartmental models using actual dosing and sampling
times were built using Phoenix NLME 8.2. To determine the best fit pharmacokinetic model
structure, model selection and identification of variability were based on minimizing the Akaike
Information Criteria (AIC) and the log-likelihood values (-2LL), achieving adequate parameter
precision, inspection of goodness-of-fit plots and by comparison of the quality of fit plots (such as
observed vs. fitted data, weighted residual vs. fitted data, weighted residual vs. time).

[2] = design: method as in Yang et al. [15]; settings: 2.0 mg/kg i.v.; ref Yang et al. [15]; cited from earlier work
[3] = design: method as in ApexBio website [16]; settings: ref ApexBio website [16]; cited from earlier work
Caco-2 = tested on: Caco-2; design: method as in Yang et al. [15]; settings: ref Yang et al. [15]; cited from earlier work
[4] = 2.8 mg/kg i.v.; cited from earlier work

O=C1CCC[C@@H]2[C@H]3CCCN4CCC[C@@H](CN12)[C@@H]34 [matrine]
Tlag [1]: 0.44 ± 0.01 h | Vmax (maximum velocity of drug transfer rate, plasma to saliva) [1]: 11.88 ± 1.27 mg/h/kg | Vs (volume of distribution of the saliva compartment) [1]: 0.02 ± 0.01 L/kg | CL/F ([1]; both sexes, human, plasma, oral, 2400 mg ATB, read-out: CLp (apparent clearance of plasma) (converted)): 0.333 mL/min/kg | Vd ([1]; both sexes, human, plasma, oral, 2400 mg ATB, read-out: Vp (volume of distribution of the plasma compartment)): 1.42 ± 0.08 L/kg | Km ([1]; human, plasma and saliva, oral, 2400 mg, read-out: Km (substrate concentration at half maximal transfer rate, plasma to saliva)): 280 ± 5.73 µg/mL | AUC0-T Rats Observed [2]: 1717.6 ng·h/mL | Solubility at pH 7.4 [3]: 50.00 mg/mL | Peff (Caco-2) (Caco-2): 42.5 ×10⁻⁶ cm/s | AUC0-T Mice Observed [4]: 5131.1 ng·h/mL
